Data as given in publication PMC10806146.
Residue numbers refer to the chain shown, from its start. These are yes or no findings as the source states them, for the method shown. Binding seen in cells or lysates may run through a third protein. Some binding calls cover weakened binding; strength is not graded here.

Chains of the proteins cited; added tags and fusions are not shown.
UniProt P51617: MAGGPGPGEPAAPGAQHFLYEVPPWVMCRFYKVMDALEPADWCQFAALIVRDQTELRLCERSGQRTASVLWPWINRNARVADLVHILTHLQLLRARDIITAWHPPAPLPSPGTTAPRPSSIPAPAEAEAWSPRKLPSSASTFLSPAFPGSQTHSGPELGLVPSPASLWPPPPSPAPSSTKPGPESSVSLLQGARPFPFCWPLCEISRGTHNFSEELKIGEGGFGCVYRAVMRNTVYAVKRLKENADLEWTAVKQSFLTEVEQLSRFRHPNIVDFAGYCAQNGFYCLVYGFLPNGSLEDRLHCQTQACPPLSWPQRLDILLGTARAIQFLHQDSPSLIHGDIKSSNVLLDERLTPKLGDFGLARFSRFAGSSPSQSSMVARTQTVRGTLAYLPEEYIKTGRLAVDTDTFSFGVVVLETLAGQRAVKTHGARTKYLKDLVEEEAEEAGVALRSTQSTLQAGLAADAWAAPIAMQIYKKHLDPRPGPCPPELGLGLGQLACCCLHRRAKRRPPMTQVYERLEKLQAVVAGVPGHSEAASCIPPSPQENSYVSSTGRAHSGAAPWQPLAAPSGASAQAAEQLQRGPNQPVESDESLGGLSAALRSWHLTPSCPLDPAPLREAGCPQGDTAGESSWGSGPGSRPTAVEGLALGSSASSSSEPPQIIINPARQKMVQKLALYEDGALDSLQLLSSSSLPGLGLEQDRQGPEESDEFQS

Experiments:
Assay in all cases: co-IP; IRAK-M WT or mutant co-expressed with IRAK-1 in 293T cells, without myddosome; IP with anti-IRAK-M 1F6; blots with anti-IRAK-1 and anti-IRAK-M 4369
[1] = target: T1, IRAK-M Y105A (human) (UniProt Q9Y616)
T1 sequence: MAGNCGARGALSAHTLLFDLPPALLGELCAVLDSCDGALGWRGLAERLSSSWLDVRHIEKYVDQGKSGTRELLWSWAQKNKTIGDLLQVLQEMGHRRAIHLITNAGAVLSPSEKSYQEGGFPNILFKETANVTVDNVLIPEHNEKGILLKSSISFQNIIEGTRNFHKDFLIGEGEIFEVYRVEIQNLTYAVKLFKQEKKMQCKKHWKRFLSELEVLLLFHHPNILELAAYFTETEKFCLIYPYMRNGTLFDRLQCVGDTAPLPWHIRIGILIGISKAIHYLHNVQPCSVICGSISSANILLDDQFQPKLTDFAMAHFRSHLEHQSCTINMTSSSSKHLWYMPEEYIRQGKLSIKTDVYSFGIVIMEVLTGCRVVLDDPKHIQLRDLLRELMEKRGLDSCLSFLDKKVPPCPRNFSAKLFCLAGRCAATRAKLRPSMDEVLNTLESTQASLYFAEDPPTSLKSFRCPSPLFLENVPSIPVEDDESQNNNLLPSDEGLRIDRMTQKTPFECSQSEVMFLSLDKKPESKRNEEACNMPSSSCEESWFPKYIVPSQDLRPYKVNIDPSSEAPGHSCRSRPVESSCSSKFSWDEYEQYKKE

[2] = target: T2, IRAK-M K60E (human) (UniProt Q9Y616)
T2 sequence: T1 sequence with K60E, A105Y

[3] = target: T3, interleukin-1 receptor associated kinase-M (IRAK-M), wild type (human) (UniProt Q9Y616)
T3 sequence: T1 sequence with A105Y

Question: How did the binding [1] turn out when IRAK-1 (from UniProt P51617 1-712) was run?
Answer: Its binding is “binds”.

Question: And the binding [2]?
Answer: The binding was “no binding”.

Question: And the binding [3]?
Answer: The binding was “binds”.
